The values that follow come from the supplement of paper PMC11417369.

The list shows a part of the results.

The test system of the assay is PF3D7_0420300 AP2 domain 1 (GST-tagged). As to the kind of experiment: gcPBM binding intensity (ln(normalized median fluorescence intensity)); higher = stronger DNA binding. In short, it runs like this: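 Probes on an Agilent 4 × 180k array were primer-extended, double-stranded and 36 bp long, taken from intergenic genomic regions, with negative controls added. GST-tagged P. falciparum DNA-binding domains from E. coli, about 25 μg on average, were applied to the array for 1 h in 1× PBS containing 1% milk, 0.2 mg/ml BSA, 0.5% salmon testes DNA and 0.03% Triton X-100. Binding intensity, obtained after Alexa488 anti-GST antibody detection and a 488 nm scan, is the highest Masliner-normalised natural-log median intensity across replicate spots of either probe orientation.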
In the case of “GGTGGCTAAATTACAACACACGACGGAATATTATAT [CACACA_site4114]”, the “gcPBM binding intensity (ln)” value came out at 9.55.
As for “AATATATGGTTTCATTATATTAAATTCAATTTAATG [CACACA_negctrl_site675]”, the figure is 9.12.
As for “TTTTATTCATTGAGCACACAAAATAAATTATCAAAA [CACACA_site3279]”, the figure is 9.02; as for “AGTATATAATAATTTACACACAAAAAAATATCAGGA [CACACA_site3517]”, 9.8.
In the case of “ACCGTGGGAAGACACACACACACACCCACATATATA [CACACA_site333]”, the “gcPBM binding intensity (ln)” value turned out to be 10.2.
As for “AATAAATATATGTACACACACAAATATATACATATC [CACACA_site1903]”, the figure is 9.82; as for “TTTTATAATGTTGTAGTGCAAAATACGTATATTTAT [GTGCAC_site9826]”, 9.22; as for “AGATATAAGAAAAGCACACACACACCCAAAAAAAAA [CACACA_site2826]”, 10.2.
As for “AAAATATATATTAACACACACACAAAAAAAAAAAAA [CACACA_site1325]”, the figure is 10.1; as for “GAAAATTATATGTGTTGTACACTTGCAACAACTATT [XGTACX_site3637]”, 9.13; as for “CTATTATCGGTTCCTACACACAAATATAGATGTCTA [CACACA_site7651]”, 9.54.
As for “TATATAATACAAAAGGGTACATTAACATATTATATA [XGTACX_site3196]”, the figure is 9.33.
As for “TTTCACATATATATGGTGCATATTTTATGTGTAAAT [GTGCAC_site9937]”, the “gcPBM binding intensity (ln)” value was 9.12.
As for “TTTGTAACTTCTTTCACACATATATATATATATATA [CACACA_site5603]”, the figure is 9.35; as for “GTGTGCAAAAATTGTTGTACATTATATATAAAAAAA [XGTACX_site3246]”, 9.26; as for “TATATATAAAGCAGTACACACATTTATTTTAGATAC [CACACA_site3387]”, 9.64.
As for “AGTGATAATTTAAAAAGTACAAATGAAATTTAGCTA [XGTACX_site3375]”, the “gcPBM binding intensity (ln)” value worked out at 9.25.
As for “AGAGAGAAAGCTATAACATGCAAAAATTTTTAGAAC [TGCATGCA_site420]”, the figure is 9.46.
For the sequence “ATACAAATAAAAAAAAAAATTATAAAATTATAAAAT [CACACA_negctrl_site914]”, the “gcPBM binding intensity (ln)” value is 9.22.
In the case of “CATATATATATATATTGTACACATTTTTTATAAAAA [XGTACX_site2526]”, the “gcPBM binding intensity (ln)” value turned out to be 9.12.
As for “TATTTGCAATATAACACACACAAAAAAAGACTCGGA [CACACA_site6891]”, the figure is 9.93; as for “TATATGTAATATATATGTACGTATAATATAATATTG [XGTACX_site8620]”, 9.27; as for “AATTATACATTATATTGTACATATGAATAATTAAAA [XGTACX_site6829]”, 9.05.
Turning to “TTAAAAAAAATTTCAAGTACAAAGTAATATATATAT [XGTACX_site5718]”, the “gcPBM binding intensity (ln)” value amounted to 9.2.
As for “AAAAAAATTGGGAAAAGTACTTGCAGCTAGCTAAAA [XGTACX_site5178]”, the figure is 9.18.
As to “AAACAAATATAATATTGTACATATATATATATATAT [XGTACX_site3105]”, the “gcPBM binding intensity (ln)” value came out at 9.16.
In the case of “GGATTGATAAGTGGTACACACATATATATTATATAT [CACACA_site2866]”, the “gcPBM binding intensity (ln)” value came to 9.49.
In the case of “AAATATAAAAATAGCACACATATATACCTATATATA [CACACA_site4204]”, the “gcPBM binding intensity (ln)” value was 9.5.
As to “GCATTGGGAATATATAGTACATATATATATATATAA [XGTACX_site2967]”, the “gcPBM binding intensity (ln)” value is 9.14.
As for “TTTTTCTTTTTCTTTTTTTCTTTTTTTTTTTTTTTC [GTGCAC_negctrl_site727]”, the figure is 8.96; as for “CAGACGCACGTATTTGCACACATTGCCACGTAATTA [CACACA_site3349]”, 9.42.
For “AACCATTCAACTGATGCATGCATTTAACATATAAAT [TGCATGCA_site961]”, the “gcPBM binding intensity (ln)” value worked out at 9.24.
As for “TCATTTCACAAACACACACACACAATATATTTCCTT [CACACA_site3905]”, the figure is 10.1; as for “CCACAAGCAGCGGAAACATGCATATGTTGAAATAAT [TGCATGCA_site610]”, 9.02; as for “AACAAAAAAAAAAAATGTACATATATATAATATATT [XGTACX_site3829]”, 9.23.
As for “GTTAAGAATATGTGTACACATATACATAAATACATA [CACACA_site4254]”, the figure is 9.45; as for “TAATAATATTATTAATGTACAAATATATATACATAT [XGTACX_site7348]”, 9.15.
As for “TATATATATATATATTGTACCCTTTTCAAACTTCTC [XGTACX_site2812]”, the figure is 9.02; as for “AATATCATCCTTTTTTTTTATAAAATTTAAAATATA [CACACA_negctrl_site844]”, 9.06.
With “ACCTCACAAATGAATACACACAAACATATATATTTA [CACACA_site4976]”, the “gcPBM binding intensity (ln)” value came out at 9.62.
As for “TATTTTATTATACCAAGTACAAAATTTAAATATGAA [XGTACX_site5478]”, the figure is 8.99; as for “TATAAGAGAATATATACACACAAAAATAAATACAGT [CACACA_site5000]”, 10.3; as for “ATTTTATGTTGAAAGTGTACGTATTAATATGTAGAA [XGTACX_site245]”, 9.12.
As for “ATATATATATAATTTTGTACATAATAGCAATTCTAA [XGTACX_site653]”, the figure is 9.07; as for “GTTTTAAACAAAAATTGTACAATATAATCTTCCTAT [XGTACX_site2851]”, 9.08; as for “GGATGGAGTAGTTAAGCATAATAAATAAAATTATGT [CACACA_negctrl_site578]”, 9.24.
As for “CAAAACCTTTTATGTACACACATATACATCCCACTT [CACACA_site5716]”, the figure is 9.6.
Regarding “AACAACTATTAATTTACACACATGTATATATTTTAC [CACACA_site3116]”, the “gcPBM binding intensity (ln)” value amounted to 9.64.
As for “AATAGCTAGCTGTGCACACAAACATATTTTCCAAAT [CACACA_site880]”, the figure is 9.63; as for “AGGTGTGAGACCACGTTCACAAAATAAAATACATAA [CACACA_negctrl_site326]”, 9.14.
“AACACAAGAACAGAACGTACACACACATATATATAT [XGTACX_site7347]”: the “gcPBM binding intensity (ln)” value came out at 10.
As for “TTTTTTTTTTTTTTTTGTACTCATACATACTATCAT [XGTACX_site3650]”, the figure is 8.96.
For “ACATCAAGCAGACACACACACACACCCACCCACCCA [CACACA_site8012]”, the “gcPBM binding intensity (ln)” value was found to be 10.4.
Turning to “CAGGCACTAATAAACACACACATATAAATATAAATA [CACACA_site6320]”, the “gcPBM binding intensity (ln)” value was determined as 9.72.
As for “AATTTCTACTATTGTATGCACTTTCATACATACATA [GTGCAC_site9924]”, the figure is 9.31; as for “TTTATTTTCATATGAACACACATATTTATATTATAA [CACACA_site7165]”, 9.45.
As for “ATACATACATATATATGTACTTATATTTTACACATT [XGTACX_site1688]”, the figure is 9.54; as for “TAATAAAAGAAAAAAAGTACAGACATATTGAATTTT [XGTACX_site5044]”, 9.4.
As for “TACAATCTAAGGAGCACACAAAAATGGATAAATATA [CACACA_site933]”, the figure is 9.48; as for “GCTTGAATAATCAATAGTACACACATATAAATATAT [XGTACX_site5964]”, 9.37.
“CAAACAATTAAACAAACACACATATACAAGTATTTA [CACACA_site5177]”: the “gcPBM binding intensity (ln)” value was 9.67.
Consider “TTTAAGTTTTTACTTTGTACGTATTATAATAAAATC [XGTACX_site5683]”, for which the “gcPBM binding intensity (ln)” value was found to be 9.
For the sequence “TGTTCTTTTTATACTACACACTGATAAAAAAACAAA [CACACA_site3001]”, the “gcPBM binding intensity (ln)” value amounted to 9.23.
As for “TATATTTACTTATGAAGTACATATATATATATATAT [XGTACX_site5069]”, the “gcPBM binding intensity (ln)” value was 9.01.
As for “ATAATAAAAAATACAAGTACACATATTATATATATA [XGTACX_site5355]”, the figure is 9.47; as for “AATGCTATCATTAATGCACACATTTAAAATTAATAT [CACACA_site3548]”, 9.22.
As for “TTTAAAACCTTACATACACACAAATATATATATATA [CACACA_site677]”, the figure is 9.48.
Consider “ATTTTTTTTTTTAATACACACAATTTTGATGAAGCA [CACACA_site3157]”, for which the “gcPBM binding intensity (ln)” value came out at 9.27.
As for “TTTCATAAGAGAAAGACACACAAATATATATTTATT [CACACA_site827]”, the figure is 9.3; as for “ACATTACCATATAAAACACACAAACATACATACATA [CACACA_site7709]”, 9.85.
On to “TATAATATTTGGTGCACACAAATTAACAACTGTTTA [CACACA_site3742]”, for which the “gcPBM binding intensity (ln)” value amounted to 9.38.
On to “TATCCATGCATTTACACACACACAAAAAAAAATTCT [CACACA_site4100]”, for which the “gcPBM binding intensity (ln)” value was 10.
As for “TTCATACATAGAAAATGTACATATATATATATATAT [XGTACX_site1895]”, the figure is 9.16; as for “ATATATATGCATAATACACACATCATATAATTAACC [CACACA_site1643]”, 9.78.
For “TACAAAATATTTTACACACACATATAAATACAGATA [CACACA_site5447]”, the “gcPBM binding intensity (ln)” value worked out at 10.
As for “AAAAAAAAAAACAATACATGCATAATATTAATAAAA [TGCATGCA_site913]”, the figure is 9.46; as for “AAGATATGTACTAATACACACACATATATATATATA [CACACA_site8249]”, 9.66; as for “AAAGAAAAAAAATAATGTACTTATGTATTTCAGAAA [XGTACX_site3570]”, 9.08.
For “ACCTTATTTATTATTGCATGTGACCATCAGATGGTA [TGCATGCA_site288]”, the “gcPBM binding intensity (ln)” value turned out to be 9.39.
On to TTTATTTTTTACCAAGTGCAATATATTATAATAATA, for which the “gcPBM binding intensity (ln)” value stood at 8.94.
As for “TAATATTTATAATAGTGTACACAATTATAAACTGAA [XGTACX_site8426]”, the figure is 9.27; as for “TATTTATAAGTTTACGCATGCATATAATTATTAATA [TGCATGCA_site311]”, 8.98.
As for “TTTTTTTTTTTTTTTGTGCACAATTATTTCAATTTT [GTGCAC_site9884]”, the figure is 9.05; as for “TTTTAAATAATTCGTAATTATAATTATGGAAAAAAG [CACACA_negctrl_site152]”, 8.96; as for “AAATAAATTAAAATAAATTAAATTAAATTAGCATTA [GTGCAC_negctrl_site531]”, 8.87.
“TGTATGTTATGTATATGTACATATCTTTGTATTTAT [XGTACX_site6920]”: the “gcPBM binding intensity (ln)” value came to 9.45.
As for “TTTATATATATAATATGTACACATAATAATAATACA [XGTACX_site4862]”, the figure is 9.02; as for “AAATGACATTTCAAAAGTACATATTTAATTAATTAA [XGTACX_site2919]”, 9.11; as for “TTTATTTAAAAAGTTTGTACATATATATTATTTTGA [XGTACX_site6040]”, 8.97.
